# Among all 310,000 compounds or so, about 14,000 (4.5%) showed an effect of 50% or more. The effect is printed as a negative number. This is one part of the list.
# Target: human ether-à-go-go-related gene (hERG) potassium channel (human, UniProt Q12809)
# Assay: primary screen, population patch clamp on CHO cells stably expressing hERG
# 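Note: peak tail current of the secondary pulse compared with the same well before compound.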
# Sequence of human ether-à-go-go-related gene (hERG) potassium channel (Q12809 whole entry, looked up): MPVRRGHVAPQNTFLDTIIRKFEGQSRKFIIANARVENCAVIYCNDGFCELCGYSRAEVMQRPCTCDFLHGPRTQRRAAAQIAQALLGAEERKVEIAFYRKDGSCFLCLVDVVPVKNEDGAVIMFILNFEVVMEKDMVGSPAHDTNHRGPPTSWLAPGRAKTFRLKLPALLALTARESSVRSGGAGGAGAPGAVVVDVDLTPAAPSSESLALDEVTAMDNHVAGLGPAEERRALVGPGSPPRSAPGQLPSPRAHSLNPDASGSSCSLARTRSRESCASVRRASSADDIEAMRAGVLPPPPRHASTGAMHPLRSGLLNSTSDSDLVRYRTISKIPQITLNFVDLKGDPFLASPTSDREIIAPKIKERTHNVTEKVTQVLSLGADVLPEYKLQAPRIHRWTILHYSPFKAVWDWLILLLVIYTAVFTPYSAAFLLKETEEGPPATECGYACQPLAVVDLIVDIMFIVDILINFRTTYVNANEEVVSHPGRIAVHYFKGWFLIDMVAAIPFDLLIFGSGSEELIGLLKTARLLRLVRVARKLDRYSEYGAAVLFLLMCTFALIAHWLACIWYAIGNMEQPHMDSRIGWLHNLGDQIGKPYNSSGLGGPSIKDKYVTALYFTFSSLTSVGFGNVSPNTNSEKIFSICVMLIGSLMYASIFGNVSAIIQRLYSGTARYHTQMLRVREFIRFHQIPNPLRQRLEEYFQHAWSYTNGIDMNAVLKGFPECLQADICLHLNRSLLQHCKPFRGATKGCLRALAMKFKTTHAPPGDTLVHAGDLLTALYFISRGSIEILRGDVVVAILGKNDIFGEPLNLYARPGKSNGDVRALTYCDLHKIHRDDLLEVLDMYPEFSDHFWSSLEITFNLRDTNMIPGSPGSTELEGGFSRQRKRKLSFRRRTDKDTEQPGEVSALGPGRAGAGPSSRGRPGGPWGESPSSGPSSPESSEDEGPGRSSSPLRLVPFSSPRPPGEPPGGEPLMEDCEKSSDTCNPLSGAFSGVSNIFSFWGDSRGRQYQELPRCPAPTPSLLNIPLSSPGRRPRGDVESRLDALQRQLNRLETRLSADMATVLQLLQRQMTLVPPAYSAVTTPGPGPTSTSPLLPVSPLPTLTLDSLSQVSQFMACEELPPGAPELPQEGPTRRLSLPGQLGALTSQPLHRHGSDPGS
row,Compound,"hERG current change (%, negative = inhibition) at 10uM [%]"
1,Cc1ccc(NC2c3ncccc3C(=O)N2Cc2cccs2)cc1 (stereo not shown),-8.04
2,Cc1ccc2nc(NC(=O)C3CCN(S(=O)(=O)c4cc([N+](=O)[O-])ccc4Cl)CC3)sc2c1,-5.19
3,Cc1n[nH]c(=O)c2c(NC(=O)CSc3ccccc3Cl)oc(C)c12,-25.5
4,CCOC(=O)c1nc(-c2ccc(OC)c(OC)c2)cnc1C#N,13.9
5,COc1ccccc1N(C(=O)c1snc(C(N)=O)c1N)C(C(=O)NC1CCCC1)c1ccc(N(C)C)cc1 (stereo not shown),5.58
6,O=C(CSc1ccc(Cl)cc1)Nc1cccc(-c2nc3ncccc3o2)c1,8.88
7,CS(=O)(=O)N1CCN(C(=O)c2ccc(F)cc2)CC1,-37.1
8,c1ccc(Nc2nc(-c3cccs3)cs2)nc1,1.74
9,Cc1cc(C)nc(OC(=O)c2ccc(Cl)cc2Cl)n1,9.65
10,CCCCn1nnnc1SCC(=O)N1CCOCC1,4.31
11,COc1cc(C)c(Cl)cc1S(=O)(=O)NCc1ccccn1,-4.13
12,COc1cccc(NC(=O)Cn2nnc(C(=O)NCCc3ccccc3)c2N)c1,11.6
13,COC(=O)c1ccc(-n2cncn2)c([N+](=O)[O-])c1,12
14,CCCOc1ccc(NCC(=O)Nc2ccc(C)cc2C)cc1,33.3
15,Cc1ccc(NC(=O)Cn2c(CCC(=O)O)ccc2-c2ccc(Cl)cc2)cc1,10.4
16,COc1ccc(OC)c(N(CC(=O)Nc2cccnc2)S(C)(=O)=O)c1,14.3
17,COc1cccc(CC(NC(C)=O)C(=O)NC2CCN(c3c(Cc4ccccc4)c(C)nc4ncnn34)CC2)c1OC (stereo not shown),0.736
18,COc1ccc(F)cc1S(=O)(=O)NC(Cc1ccccc1)C(N)=O (stereo not shown),12.4
19,O=C(Cc1ccccc1)Nc1ccccc1C(=O)O,8.27
20,Cc1ccc(S(=O)(=O)Nc2ccccc2C(=O)Nc2nc(-c3ccc(F)cc3)cs2)cc1,9.22

row,Compound,"hERG current change (%, negative = inhibition) at 10uM [%]"
1,C=CCOc1ccc(C2C(C(=O)c3ccco3)=C(O)C(=O)N2Cc2cccnc2)cc1 (stereo not shown),5.62
2,CN1C=CC=C/C1=C1\SC(=S)N(C2CCCCC2)C1=O,-52.3
3,CCOC(=O)Cc1csc(NC(=O)CCNS(=O)(=O)c2ccc3c(c2)CCC(=O)N3)n1,9.62
4,CC(C)OC(=O)Cn1c(=O)sc2ccccc21,-5.59
5,COC(=O)C1C(=O)c2c([nH]c(C(=O)OCCOC(C)C)c2C)CC1C (stereo not shown),-4.57
6,CCc1ccc(S(=O)(=O)NCC(O)COc2ccc(OC)cc2)cc1 (stereo not shown),-15.2
7,Cc1cc(NC(=O)CSc2nncc(=O)n2N)no1,1.99
8,Cc1ccc(S(=O)(=O)N2CCN(C(=O)N(C)C)CC2)cc1C,5.33
9,Nc1nc(SCC(=O)Nc2ccc3c(c2)CCC3)n[nH]1,12.8
10,O=[N+]([O-])c1ccccc1CCl,11.3
11,COc1cc(/C=C/C(=O)NCCN2CCOCC2)cc(OC)c1OC,11.4
12,COc1cccc2cc(C(=O)N3CCN(c4ccccc4F)CC3)c(=O)oc12,-12.3
13,COc1cc2nc(CN(C)Cc3ccc(C(C)(C)C)cc3)[nH]c(=O)c2cc1OC,-12.6
14,O=[N+]([O-])c1ccc(NC(=S)N/C(=N/CS(=O)(=O)c2ccccc2)c2ccccc2)cc1,-25.1
15,CCOc1ccc(NC(=S)Nc2cccc3cnccc23)cc1,-25.6
16,COc1ccc(NS(=O)(=O)c2ccc3c(c2)n(C)c(=O)n3C)cc1,4.94
17,CCOc1ccc(N(CC(=O)OC)S(=O)(=O)c2ccc(OC)c(OC)c2)cc1,-35.1
18,CCc1ccc(OCC(=O)NC2CCCCC2)c(Br)c1,18.6
19,CC(=O)Nc1ccc(NC(=O)COC(=O)/C(=C/c2ccccc2)n2nnnc2C)cc1,13
20,O=C(OCc1ccc(Cl)cc1)c1cccnc1Cl,2.37

row,Compound,"hERG current change (%, negative = inhibition) at 10uM [%]"
1,COc1ccc(CCC2(C)NC(=O)N(C(C)C(=O)N3c4ccccc4CC3C)C2=O)cc1 (stereo not shown),-44.8
2,COc1ccccc1N1CCN(C(=O)C2CC(=O)N(c3ccccc3)C2)CC1 (stereo not shown),-19.9
3,CC(=O)NC(=S)Nc1ccc(S(=O)(=O)Nc2ncccn2)cc1,14.4
4,CC(C)NC(=S)N1CCN(S(C)(=O)=O)CC1,6.17
5,CCCCSCCCNC(=O)c1cn(CC)c2ccc(S(=O)(=O)N3CCOCC3)cc2c1=O,-44.9
6,COCCSc1nnc(NC(=O)CCS(=O)(=O)Cc2ccccc2)s1,9.51
7,Cc1ccc(OCC(=O)N2CCCCC2)c(Br)c1,-17.7
8,COC(=O)c1scc(S(=O)(=O)C(C)(C)C)c1-n1cccc1,11
9,COc1ccc(N/C(=C/[N+](=O)[O-])SC)cc1,13.2
10,CCn1nnnc1-c1ccc(OC)c(S(=O)(=O)Nc2ccc(S(N)(=O)=O)cc2)c1,26
11,O=C(NC(=O)N1CCC2(CC1)OCCO2)c1ccc(Cl)cc1,20.2
12,CC(C)(O)CCC(C)(C)O,21.1
13,COc1ccccc1-c1cc(=O)c2c(O)ccc([N+](=O)[O-])c2o1,17.6
14,C=CCn1c(SCC(=O)NCc2ccccc2)nnc1C1CCCCC1,-3.55
15,Cc1ccc(S(=O)(=O)NCCC(=O)NNC(=O)c2ccccc2O)cc1C,-21.5
16,CCOC(=O)c1c(CC(C)C)csc1NC(=O)C(C)C,-2.51
17,NC(=O)c1cccc(NC(=O)CCCCC(=O)Nc2cccc(C(N)=O)c2)c1,18
18,O=C(CC12CC3CC(CC(C3)C1)C2)N1CCCOC1,-3.81
